Measured values: the supplement of paper PMC4967469

What was measured:
[1] = compound: O=C(/C=C/c1cccnc1)NCCCCC1CCN(C(=O)c2ccccc2)CC1 [FK866]; assay: Viability of human cancer cell lines after 72 h of drug (GDSC screen); details: top dose 1 µM; top dose inferred
Procedure: (§1)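 Human cancer cell lines in 384-well plates, medium with 10% serum, drug for 72 h over a 256-fold dose range (nine 2-fold or five 4-fold steps up to the top dose). Adherent lines were fixed and stained with the nucleic acid dye Syto60, suspension lines read with resazurin; signal relative to control wells, capped at 0 and 100%. One two-parameter sigmoid per drug and line, fitted in a mixed model over all curves with the slope shared within a line.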

[2] = compound: Nc1[nH]nc2nnc(-c3c(-c4ccccc4)nn4ccccc34)cc12 [FR-180204]; assay: as above; details: top dose 20 µM; top dose inferred
Procedure: as §1

| Cell Line | AUC [1] | pIC50 [1] | AUC [2] | pIC50 [2] |
| --- | --- | --- | --- | --- |
| 8-MG-BA (glioma, adherent) | 0.059 | > 8.41 | 0.98 | < 4.70 |
| 22RV1 (prostate, adherent) | 0.685 | 6.63 | 0.916 | < 4.70 |
| 42-MG-BA (glioma, adherent) | 0.125 | > 8.41 | 0.97 | < 4.70 |
| 451Lu (melanoma, adherent) | 0.842 | 6.18 | 0.977 | < 4.70 |
| 639-V (bladder, adherent) | 0.989 | < 6.00 | 0.991 | < 4.70 |
| 647-V (bladder, adherent) | 0.37 | 7.57 | 0.986 | < 4.70 |
| 697 (lymphoblastic leukaemia, suspension) | 0.014 | > 8.41 | 0.954 | < 4.70 |
| 769-P (kidney, adherent) | 0.433 | 7.39 | 0.978 | < 4.70 |
| 786-0 (kidney, adherent) | 0.297 | 7.75 | 0.975 | < 4.70 |
| 5637 (bladder, adherent) | 0.794 | 6.39 | 0.979 | < 4.70 |
| 8305C (thyroid, adherent) | 0.972 | < 6.00 | 0.954 | < 4.70 |
| 8505C (thyroid, adherent) | 0.337 | 7.67 | 0.971 | < 4.70 |
| 23132-87 (stomach, adherent) | 0.107 | > 8.41 | 0.974 | < 4.70 |
| A3-KAW (B-cell lymphoma, suspension) | 0.045 | > 8.41 | 0.972 | < 4.70 |
| A4-Fuk (B-cell lymphoma, suspension) | 0.104 | > 8.41 | 0.986 | < 4.70 |
| A101D (melanoma, adherent) | 0.714 | 6.53 | 0.959 | < 4.70 |
| A172 (glioma, adherent) | 0.104 | > 8.41 | 0.977 | < 4.70 |
| A204 (rhabdomyosarcoma, adherent) | 0.254 | 8.01 | 0.961 | < 4.70 |
| A253 (head and neck, adherent) | 0.432 | 7.39 | 0.988 | < 4.70 |
| A375 (melanoma, adherent) | 0.134 | 8.21 | 0.951 | < 4.70 |
| A388 (skin, adherent) | 0.832 | 6.11 | 0.981 | < 4.70 |
| A427 (non-small cell lung carcinoma, adherent) | 0.092 | > 8.41 | 0.977 | < 4.70 |
| A431 (skin, adherent) | 0.798 | 6.34 | 0.978 | < 4.70 |
| A498 (kidney, adherent) | 0.883 | < 6.00 | 0.972 | < 4.70 |
| A673 (rhabdomyosarcoma, adherent) | 0.055 | > 8.41 | 0.982 | < 4.70 |

| Cell Line | AUC [1] | pIC50 [1] | AUC [2] | pIC50 [2] |
| --- | --- | --- | --- | --- |
| A704 (kidney, adherent) | 0.811 | 6.29 | 0.984 | < 4.70 |
| ABC-1 (lung adenocarcinoma, adherent) | 0.969 | < 6.00 | 0.959 | < 4.70 |
| ACHN (kidney, adherent) | 0.561 | 7.03 | 0.94 | < 4.70 |
| ALL-PO (lymphoblastic leukaemia, suspension) | 0.13 | > 8.41 | 0.774 | 5.08 |
| ALL-SIL (T-cell leukaemia, suspension) | 0.023 | > 8.41 | 0.686 | 5.42 |
| AM-38 (glioma, semi-adherent) | 0.176 | 8.19 | 0.912 | < 4.70 |
| AMO-1 (haematopoietic neoplasm, suspension) | 0.023 | > 8.41 | 0.968 | < 4.70 |
| AN3-CA (endometrium, adherent) | 0.274 | 7.88 | 0.982 | < 4.70 |
| ARH-77 (myeloma, suspension) | 0.216 | 8.02 | 0.981 | < 4.70 |
| ASH-3 (thyroid, adherent) | 0.987 | < 6.00 | 0.988 | < 4.70 |
| ATN-1 (T-cell lymphoblastic leukaemia, suspension) | 0.144 | 8.27 | 0.977 | < 4.70 |
| AsPC-1 (pancreas, adherent) | 0.588 | 6.89 | 0.924 | < 4.70 |
| BB49-HNC (head and neck, adherent) | 0.376 | 7.61 | 0.973 | < 4.70 |
| BB65-RCC (kidney, adherent) | 0.334 | 7.70 | 0.983 | < 4.70 |
| BC-1 (B-cell lymphoma, suspension) | 0.162 | 8.14 | 0.978 | < 4.70 |
| BCPAP (thyroid, adherent) | 0.218 | 7.98 | 0.97 | < 4.70 |
| BE2-M17 (neuroblastoma, adherent) | 0.072 | > 8.41 | 0.977 | < 4.70 |
| BE-13 (lymphoblastic leukaemia, suspension) | 0.023 | > 8.41 | 0.937 | < 4.70 |
| BEN (non-small cell lung carcinoma, adherent) | 0.94 | < 6.00 | 0.979 | < 4.70 |
| BFTC-905 (bladder, adherent) | 0.224 | 7.94 | 0.976 | < 4.70 |
| BFTC-909 (kidney, adherent) | 0.356 | 7.60 | 0.984 | < 4.70 |
| BHT-101 (thyroid, adherent) | 0.557 | 7.05 | 0.958 | < 4.70 |
| BHY (head and neck, adherent) | 0.741 | 6.51 | 0.965 | < 4.70 |
| BICR10 (head and neck, adherent) | 0.689 | 6.63 | 0.985 | < 4.70 |
| BICR22 (head and neck, adherent) | 0.662 | 6.72 | 0.983 | < 4.70 |

| Cell Line | AUC [1] | pIC50 [1] | AUC [2] | pIC50 [2] |
| --- | --- | --- | --- | --- |
| BICR78 (head and neck, adherent) | 0.589 | 6.94 | 0.967 | < 4.70 |
| BL-41 (Burkitt lymphoma, suspension) | 0.994 | < 6.00 | 0.981 | < 4.70 |
| BPH-1 (prostate, adherent) | 0.453 | 7.34 | 0.902 | < 4.70 |
| BT-20 (breast, adherent) | 0.95 | < 6.00 | 0.983 | < 4.70 |
| BT-474 (breast, adherent) | 0.917 | < 6.00 | 0.957 | < 4.70 |
| BT-483 (breast, adherent) | 0.956 | < 6.00 | 0.969 | < 4.70 |
| BV-173 (chronic myeloid leukaemia, suspension) | 0.031 | > 8.41 | 0.977 | < 4.70 |
| Becker (glioma, adherent) | 0.399 | 7.50 | 0.963 | < 4.70 |
| BxPC-3 (pancreas, adherent) | 0.682 | 6.67 | 0.967 | < 4.70 |
| C2BBe1 (large intestine, adherent) | 0.86 | < 6.00 | 0.94 | < 4.70 |
| C3A (liver, adherent) | 0.794 | 6.32 | 0.988 | < 4.70 |
| C32 (melanoma, adherent) | 0.942 | < 6.00 | 0.987 | < 4.70 |
| C-4-I (cervix, adherent) | 0.327 | 7.71 | 0.984 | < 4.70 |
| C-33-A (cervix, adherent) | 0.143 | 8.32 | 0.967 | < 4.70 |
| CA46 (Burkitt lymphoma, suspension) | 0.042 | > 8.41 | 0.985 | < 4.70 |
| CADO-ES1 (Ewing sarcoma, suspension) | 0.987 | < 6.00 | 0.961 | < 4.70 |
| CAKI-1 (kidney, adherent) | 0.643 | 6.72 | 0.949 | < 4.70 |
| CAL-12T (non-small cell lung carcinoma, adherent) | 0.375 | 7.57 | 0.956 | < 4.70 |
| CAL-27 (head and neck, adherent) | 0.082 | > 8.41 | 0.97 | < 4.70 |
| CAL-29 (bladder, adherent) | 0.225 | 8.04 | 0.969 | < 4.70 |
| CAL-33 (head and neck, adherent) | 0.4 | 7.48 | 0.973 | < 4.70 |
| CAL-39 (cervix, adherent) | 0.87 | 6.00 | 0.978 | < 4.70 |
| CAL-51 (breast, adherent) | 0.041 | > 8.41 | 0.991 | < 4.70 |
| CAL-54 (kidney, adherent) | 0.911 | < 6.00 | 0.983 | < 4.70 |
| CAL-62 (thyroid, adherent) | 0.116 | 8.40 | 0.985 | < 4.70 |

| Cell Line | AUC [1] | pIC50 [1] | AUC [2] | pIC50 [2] |
| --- | --- | --- | --- | --- |
| CAL-72 (osteosarcoma, adherent) | 0.468 | 7.30 | 0.981 | < 4.70 |
| NCC010 (kidney, adherent) | 0.447 | 7.35 |  |  |
| NCI-H146 (small cell lung carcinoma, suspension) | 0.097 | 8.33 |  |  |
| NCI-H508 (large intestine, semi-adherent) | 0.918 | < 6.00 |  |  |
| NCI-H835 (lung carcinoid, suspension) | 0.2 | 8.07 |  |  |
| NCI-H929 (myeloma, suspension) | 0.031 | > 8.41 |  |  |
| NCI-H1105 (small cell lung carcinoma, suspension) | 0.272 | 7.79 |  |  |
| NCI-H1341 (small cell lung carcinoma, suspension) | 0.395 | 7.47 |  |  |
| NCI-H1650 (lung adenocarcinoma, adherent) | 0.806 | 6.15 |  |  |
| NCI-H2066 (small cell lung carcinoma, adherent) | 0.975 | < 6.00 |  |  |
| NCI-N87 (stomach, adherent) | 0.723 | 6.44 |  |  |
| PWR-1E (prostate, adherent) | 0.853 | 6.11 |  |  |
| RCH-ACV (B-cell leukaemia, suspension) | 0.016 | > 8.41 |  |  |
| RH-18 (rhabdomyosarcoma, adherent) | 0.884 | < 6.00 |  |  |
| SCC90 (head and neck, adherent) | 0.49 | 7.24 |  |  |
| SK-GT-2 (stomach, adherent) | 0.984 | < 6.00 |  |  |
| SK-MEL-31 (melanoma, adherent) | 0.971 | < 6.00 |  |  |
| SKM-1 (haematopoietic neoplasm, suspension) | 0.075 | > 8.41 |  |  |
| STS-0421 (soft tissue, adherent) | 0.817 | 6.17 |  |  |
| SUP-B8 (B-cell leukaemia, suspension) | 0.974 | < 6.00 |  |  |
| TC-YIK (cervix, suspension) | 0.148 | 8.20 |  |  |
| U-266 (myeloma, semi-adherent) | 0.818 | 6.08 |  |  |
| VMRC-LCD (lung adenocarcinoma, adherent) | 0.737 | 6.59 |  |  |
| ZR-75-30 (breast, adherent) | 0.981 | < 6.00 |  |  |

pIC50: −log10 of the molar value. By IC50 is meant the dose at which the fit gives 50% viability; a fit beyond the top or the lowest dose is shown as a bound at that dose. AUC sums up the same curve from the lowest dose to the 256-fold higher top dose: 1 means no effect, lower means more sensitive. An inferred top dose comes from the curve model; the source does not state it.
